Data reported in PubChem BioAssay AID2147 (National Center for Advancing Translational Sciences (NCATS), 2009).
The whole screen tested about 230,000 compounds, of which about 3,600 (1.6%) were called active. The shares of active, inactive and inconclusive entries below differ from those in the screen. Calls follow the shape of the dose curve; as a rule, active = well fitted inhibition curve with a large enough effect (not every such curve was filed as active); inconclusive = small, poorly fitted or top-dose-only effect, or another doubt; inactive = no such curve, though single readings can be large or run the other way. Potencies of inconclusive entries are doubtful fits and often do not repeat.

The molecules below were run against Lysine-specific demethylase 4E (Homo sapiens) (UniProt B2RXH2) (assay: qHTS Assay for Inhibitors of Human Jumonji Domain Containing 2E (JMJD2E)). Conditions: JMJD2E catalytic domain, FDH-coupled NADH fluorescence (FDH is formaldehyde dehydrogenase); series mostly up to 57.1 µM; activity change, negative = inhibition: at the top concentration.
Chain of UniProt B2RXH2 (B2RXH2 whole entry, looked up, the tested form may be a part): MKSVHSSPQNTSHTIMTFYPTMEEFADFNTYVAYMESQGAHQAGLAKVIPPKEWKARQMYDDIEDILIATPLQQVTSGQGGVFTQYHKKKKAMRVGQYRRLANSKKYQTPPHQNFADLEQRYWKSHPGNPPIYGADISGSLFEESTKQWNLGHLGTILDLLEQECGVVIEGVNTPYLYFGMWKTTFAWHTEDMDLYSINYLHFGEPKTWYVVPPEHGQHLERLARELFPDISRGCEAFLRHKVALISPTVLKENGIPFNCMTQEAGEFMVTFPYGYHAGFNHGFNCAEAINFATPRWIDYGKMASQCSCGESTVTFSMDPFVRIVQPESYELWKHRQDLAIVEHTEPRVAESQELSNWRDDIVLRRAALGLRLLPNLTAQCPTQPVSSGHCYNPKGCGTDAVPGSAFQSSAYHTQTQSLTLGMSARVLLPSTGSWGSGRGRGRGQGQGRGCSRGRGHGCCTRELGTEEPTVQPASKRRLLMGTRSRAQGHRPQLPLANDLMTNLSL
Also: nearly all actives have a fitted effect of over 50% in size.
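For activity change, negative = inhibition in this document: 0% = wells with enzyme and -100% = buffer wells without enzyme.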
Potency is read from the fitted curve at half-maximal effect; tags tell the direction and shape of the fitted curve.

Q: For `Cc1nc(NC(=O)c2ccc3c(c2)OCO3)ccc1Br`, which Potency is on record?
A: The Potency was inconclusive: 12.6 µM [inhibitor, partial curve, poor fit].

Q: How did the “activity change, negative = inhibition” value turn out when `CN(CC(=O)Nc1ccc(Cl)cc1)c1ccc(S(=O)(=O)N2CCCCC2)cc1[N+](=O)[O-]` was run?
A: The value was inactive: -2.47%.

Q: With `COc1ccc(-c2cc(C#N)nc(N3CCNCC3)n2)cc1` as the molecule, how does the Potency read?
A: The Potency was inconclusive: 25.1 µM [inhibitor, single point].

Q: `O=C(Cn1nc(C(=O)O)c2ccccc2c1=O)Nc1nc(-c2ccccc2)cs1` was tested. Which “activity change, negative = inhibition” value did it give?
A: Its value is inactive: 5.62%.

Q: For `Oc1ccc(C2=NNC(=NCc3ccc4c(c3)OCO4)SC2)c(O)c1`, which Potency is on record?
A: Its Potency is inconclusive: 28.2 µM [inhibitor, single point].

Q: How did the “activity change, negative = inhibition” value turn out when `CC(C)CC(=O)Nc1ccc(Oc2ccc(NC(=O)CC(C)C)cc2)cc1` was run?
A: The value was inactive: -8.2%.

Q: With `COc1cccc(-n2nnc3c(=O)n(Cc4c(F)cccc4Cl)cnc32)c1` as the molecule, how does the “activity change, negative = inhibition” value read?
A: Its value is inactive: -4.39%.

Q: With `O=C(COC(=O)CCCOc1ccc(Cl)cc1Cl)NCc1ccccc1` as the molecule, how does the “activity change, negative = inhibition” value read?
A: The value was inactive: -6.84%.

Q: How did the Potency turn out when `CC(=O)NCCN=Cc1sc2ccccc2c1O` was run?
A: The Potency was inconclusive: 39.8 µM [inhibitor, single point].

Q: With `O=C1c2ccccc2C(=O)N1CSc1nnc(Nc2ccccc2F)s1` as the molecule, how does the “activity change, negative = inhibition” value read?
A: Its value is inactive: -3.33%.

Q: How did the Potency turn out when `Nc1c(S(=O)(=O)c2cccs2)c2nc3ccccc3nc2n1CCc1ccccc1` was run?
A: Its Potency is inconclusive: 3.16 µM [inhibitor, full curve].

Q: For `COCCCn1c(=NC(C)=O)c(C#N)cc2c(=O)n3cccc(C)c3nc21`, which Potency is on record?
A: The Potency was inconclusive: 28.2 µM [inhibitor, partial curve].

Q: For `CS(=O)(=O)N(CC(N)=O)Cc1ccc(Cl)cc1`, which “activity change, negative = inhibition” value is on record?
A: The value was inactive: -3.06%.

Q: How did the Potency turn out when `C=CCn1c(=O)[nH]c2nc3cc(N=CN(C)C)c(C)cc3nc2c1=O` was run?
A: The Potency was inconclusive: 28.2 µM [inhibitor, single point].

Q: With `CC(=O)c1cccc(NC(=O)COc2cc3oc(=O)c(CC(C)O)c(C)c3cc2Cl)c1` (stereo not given) as the molecule, how does the “activity change, negative = inhibition” value read?
A: The value was inactive: 6.63%.

Q: With `Cc1ccc(CN(Cc2ccco2)C(=S)NCC(=O)O)cc1` as the molecule, how does the “activity change, negative = inhibition” value read?
A: Its value is inactive: -3.45%.

Q: For `COc1ccc(-c2oc3ncn(CCN4CCOCC4)c(=N)c3c2-c2ccc(OC)cc2)cc1`, which Potency is on record?
A: The Potency was inconclusive: 28.2 µM [inhibitor, partial curve].

Q: How did the Potency turn out when `Cc1cccc(NC(=O)Cn2cc(C(=O)c3ccco3)c3ccccc32)c1` was run?
A: The Potency was inconclusive: 35.5 µM [inhibitor, single point].

Q: Which “activity change, negative = inhibition” value does the source give for `CNc1ccncc1S(=O)(=O)NC` here?
A: Its value is inactive: -7.16%.

Q: Which “activity change, negative = inhibition” value does the source give for `COc1ccc(CCNC(=O)C2CCN(S(=O)(=O)c3cc(OC)ccc3OC)CC2)cc1` here?
A: Its value is inactive: -1.41%.

Q: For `COc1ccc(N=c2oc3cc(O)ccc3cc2C(=O)Nc2ccccn2)cc1OC`, which Potency is on record?
A: The Potency was inconclusive: 25.1 µM [inhibitor, partial curve].

Q: Which Potency does the source give for `COc1cc2[nH]c(=O)n(CCCCCC(=O)NCCCN3CCC(C)CC3)c(=O)c2cc1OC` here?
A: The Potency was inconclusive: 28.2 µM [inhibitor, partial curve].

Q: For `Oc1ccccc1CNc1cccc2cccnc12`, which Potency is on record?
A: Its Potency is inconclusive: 2.51 µM [inhibitor, full curve].

Q: How did the Potency turn out when `Cc1ccc(-c2nc(C#N)c(NCc3ccco3)o2)cc1` was run?
A: The Potency was inconclusive: 25.1 µM [inhibitor, partial curve].

Q: `CCCn1nnc(NC(=O)c2ccc(-c3cccc(Cl)c3)o2)n1` was tested. Which Potency did it give?
A: Its Potency is inconclusive: 31.6 µM [inhibitor, single point].

Q: For `CCOc1ccc2nc(SCC(=O)Nc3nonc3C)[nH]c2c1`, which “activity change, negative = inhibition” value is on record?
A: The value was inactive: -15.1%.

Q: How did the Potency turn out when `Cc1cccc(Cn2nc(-n3cccc3)c3c(C)cc(C)nc32)c1` was run?
A: The Potency was inconclusive: 25.1 µM [inhibitor, partial curve].

Q: How did the Potency turn out when `C/C=C\C=C/C(=O)Nc1cccc(C2=NOC3(C2)C[C@@H](C(N)=O)N(C(=O)c2ccc(Cl)cc2)C3)c1` (stereo not given in full) was run?
A: Its Potency is inconclusive: 28.2 µM [inhibitor, single point].

Q: Which Potency does the source give for `CCn1c2ccccc2c2cc(NC(=O)CSc3nnc(-c4ccc(OC)cc4)n3N)ccc21` here?
A: The Potency was inconclusive: 35.5 µM [inhibitor, single point].

Q: For `O=C1CC2c3ccccc3C1C1C(=O)N(CCO)C(=O)C21` (stereo not given), which Potency is on record?
A: Its Potency is inconclusive: 39.8 µM [inhibitor, partial curve].

Q: `COc1ccc(N2CCN(CC(=O)Nc3sccc3C#N)CC2)cc1` was tested. Which “activity change, negative = inhibition” value did it give?
A: The value was inactive: 10.3%.

Q: How did the Potency turn out when `CN(C)C(C)(C)C#CCC(c1ccccc1)c1ccccc1` was run?
A: Its Potency is inconclusive: 22.4 µM [inhibitor, partial curve, poor fit].

Q: For `CN(C)c1ccc(-c2cc(NCc3ccccc3)ncn2)cc1`, which Potency is on record?
A: The Potency was inconclusive: 25.1 µM [inhibitor, partial curve].

Q: With `Cc1cccc2cc(C#N)c(NCc3ccccc3)nc12` as the molecule, how does the Potency read?
A: The Potency was inconclusive: 31.6 µM [inhibitor, partial curve].

Q: With `Cc1cc(=O)[nH]c2nnnn12` as the molecule, how does the Potency read?
A: The Potency was inconclusive: 31.6 µM [inhibitor, partial curve].

Q: With `COc1cccc(-c2nc(CS(=O)CC(=O)O)c(C)o2)c1` (stereo not given) as the molecule, how does the Potency read?
A: The Potency was inconclusive: 25.1 µM [inhibitor, single point].

Q: For `COc1cc(NC(=O)c2ccco2)c(OC)cc1NC(=O)CCC(=O)Nc1cc(C)cc(C)c1`, which Potency is on record?
A: Its Potency is inconclusive: 35.5 µM [inhibitor, single point].

Q: `C=CCn1c(N)c(C(=O)OC(C)(C)C)c2nc3ccccc3nc21` was tested. Which Potency did it give?
A: Its Potency is inconclusive: 31.6 µM [inhibitor, partial curve].

Q: For `COc1ccc(NC(=O)Cn2c(=O)c(C)nc3ccccc32)cc1Cl`, which Potency is on record?
A: The Potency was inconclusive: 39.8 µM [inhibitor, single point].

Q: How did the “activity change, negative = inhibition” value turn out when `O=C(c1cn(-c2ccccc2)nc1-c1ccc(F)cc1)N1CCOCC1` was run?
A: Its value is inactive: -2.1%.

Q: For `CCC(=O)Nc1ccc(N2CCN(C(=O)c3cccs3)CC2)cc1`, which Potency is on record?
A: The Potency was inconclusive: 22.4 µM [inhibitor, single point].

Q: How did the Potency turn out when `O=c1c2[nH]c3ccc(F)cc3c2ncn1CCCn1ccnc1` was run?
A: Its Potency is inconclusive: 35.5 µM [inhibitor, single point].

Q: Which Potency does the source give for `O=C(COC(=O)/C=C/c1ccc2c(c1)OCO2)NC1CC1` here?
A: Its Potency is inconclusive: 35.5 µM [inhibitor, partial curve].

Q: With `CCCc1cc(C(=O)OC)c(NC(=O)CCCC(=O)O)s1` as the molecule, how does the “activity change, negative = inhibition” value read?
A: The value was inactive: -5.25%.

Q: Which “activity change, negative = inhibition” value does the source give for `CCC1CCCCN1C(=O)CSc1nnc(-c2ccco2)o1` (stereo not given) here?
A: Its value is inactive: 7.73%.

Q: For `COc1ccccc1CNC(=O)c1ccc2c(=O)n(CCCN3CCCC3=O)c(=S)[nH]c2c1`, which “activity change, negative = inhibition” value is on record?
A: The value was inactive: 4.25%.

Q: For `Nc1cc(C(=O)O)ccc1Nc1ccc(F)c(F)c1`, which Potency is on record?
A: Its Potency is inconclusive: 35.5 µM [inhibitor, single point].

Q: Which “activity change, negative = inhibition” value does the source give for `CCOC(=O)C1(Cc2ccccc2Cl)CCN(C(=O)CCn2ccnc2C)CC1` here?
A: The value was inactive: 11.3%.

Q: `COCCCn1c(SCC(=O)N2CC(=O)Nc3ccccc32)nnc1-c1ccoc1C` was tested. Which “activity change, negative = inhibition” value did it give?
A: The value was inactive: -1.4%.

Q: With `O=C(CCNC(=O)Cn1ccc2ccccc2c1=O)NCc1ccc(F)cc1Cl` as the molecule, how does the “activity change, negative = inhibition” value read?
A: Its value is inactive: 4.84%.

Q: With `COCc1nn2c(N)c(C#N)cnc2c1-c1ccccc1` as the molecule, how does the Potency read?
A: Its Potency is inconclusive: 39.8 µM [inhibitor, single point].

Q: For `O=C(COC(=O)c1cnccn1)c1ccccc1`, which “activity change, negative = inhibition” value is on record?
A: The value was inactive: 14.9%.

Q: How did the Potency turn out when `O=C(NCc1ccccc1)Nc1cccn(Cc2ccc(F)cc2)c1=O` was run?
A: Its Potency is inconclusive: 10 µM [inhibitor, partial curve].

Q: Which “activity change, negative = inhibition” value does the source give for `CCOC(=O)c1cc(C(=O)c2cc(Br)ccc2O)coc1=N` here?
A: Its value is inactive: -7.54%.

Q: For `O=C(NCc1ccccc1)[C@@H]1C[C@H]1[C@@H](NP(=O)(c1ccccc1)c1ccccc1)c1ccccc1`, which Potency is on record?
A: Its Potency is “inactive”.

Q: How did the “activity change, negative = inhibition” value turn out when `Nc1ccccc1OCCOCCOc1ccccc1N` was run?
A: The value was inactive: -5.26%.

Q: How did the Potency turn out when `Cc1cc(N2CCN(C)CC2)nc2ccc(NC(=S)NCCCN3CCc4ccccc4C3)cc12` was run?
A: The Potency was inconclusive: 31.6 µM [inhibitor, partial curve].

Q: `Cc1cccc(NC(=O)CCC(=O)N/N=C/c2cc([N+](=O)[O-])ccc2O)c1` was tested. Which Potency did it give?
A: The Potency was active: 10 µM.

Q: Which “activity change, negative = inhibition” value does the source give for `Cc1ccc2nc(NC(=O)c3ccc(N4C(=O)CCC4=O)cc3)sc2c1` here?
A: The value was inactive: 0.0714%.

Q: `Cc1ncc2c(c1O)COP(=O)(O)OC2` was tested. Which Potency did it give?
A: Its Potency is inconclusive: 39.8 µM [inhibitor, single point].

Q: How did the Potency turn out when `O=C(Nc1nc2ccccc2[nH]1)c1cccc(S(=O)(=O)N2CCOCC2)c1` was run?
A: Its Potency is inconclusive: 4.47 µM [inhibitor, single point].

Q: How did the Potency turn out when `CCOc1ccc(C2N(c3ccc(F)cc3)C(=O)C3CCCN32)cc1` (stereo not given) was run?
A: The Potency was inconclusive: 39.8 µM [inhibitor, single point].

Q: `NC(=O)C1CCCN(C(=S)Nc2cccc3ccccc23)C1` (stereo not given) was tested. Which Potency did it give?
A: Its Potency is inconclusive: 28.2 µM [inhibitor, partial curve].

Q: How did the Potency turn out when `CC(=O)N1[C@H](Cc2ccccc2)C=C[C@]1(C)C(=O)NCc1cc(F)cc(C(F)(F)F)c1` was run?
A: Its Potency is inconclusive: 31.6 µM [inhibitor, single point].

Q: For `Cc1ccccc1CC1S/C(=N/N=C/c2ccco2)NC1=O` (stereo not given), which Potency is on record?
A: Its Potency is inconclusive: 39.8 µM [inhibitor, single point].

Q: With `CC(=O)C1=C(C)OC(N)=C(C#N)C1c1ccncc1` (stereo not given) as the molecule, how does the Potency read?
A: Its Potency is inconclusive: 39.8 µM [inhibitor, single point].

Q: `O=[N+]([O-])c1cccc(NC(=S)NCc2ccncc2)c1` was tested. Which “activity change, negative = inhibition” value did it give?
A: The value was inactive: -1.29%.

Q: For `Cc1ccc(SCCNC(=O)/C=C/c2ccccc2Cl)cc1`, which “activity change, negative = inhibition” value is on record?
A: The value was inactive: 0.45%.

Q: For `Cc1sc2ncnc(SCC(=O)NC(C)C(C)C)c2c1C` (stereo not given), which Potency is on record?
A: The Potency was inconclusive: 20 µM [inhibitor, single point].

Q: Which Potency does the source give for `COc1cc(OC)c(C2=NOC(C(=O)N3CCCc4ccccc43)C2)cc1Cl` (stereo not given) here?
A: Its Potency is inconclusive: 39.8 µM [inhibitor, single point].

Q: With `COc1ccc(S(=O)(=O)Nc2ccc3c(c2)OCO3)cc1` as the molecule, how does the “activity change, negative = inhibition” value read?
A: The value was inactive: -8.35%.

Q: `CCCCc1c(C)nc(N2CCCC2)[nH]c1=O` was tested. Which Potency did it give?
A: Its Potency is inconclusive: 39.8 µM [inhibitor, single point].

Q: `O=C(Cn1cc(C(F)(F)F)ccc1=O)NC(c1ccccc1)c1ccccc1` was tested. Which Potency did it give?
A: Its Potency is inconclusive: 39.8 µM [inhibitor, single point].

Q: Which Potency does the source give for `COc1ccnc(NCc2cccnc2)c1C#N` here?
A: The Potency was inconclusive: 28.2 µM [inhibitor, partial curve].

Q: Which “activity change, negative = inhibition” value does the source give for `O=C(Cn1ncc(Cl)c(Cl)c1=O)N1CCN(S(=O)(=O)c2ccc3ccccc3c2)CC1` here?
A: Its value is inactive: 5.74%.
